Results reported in the supplement of paper PMC3334620.
The full ranking holds about 33,000 sequences; the median of “E-score (-0.5 to 0.5)” is about -0.016, and the highest 2% start at about 0.32. The list shows a part of the results.

Target: T1, Stp1 (UniProt B3LFK1)
T1 sequence: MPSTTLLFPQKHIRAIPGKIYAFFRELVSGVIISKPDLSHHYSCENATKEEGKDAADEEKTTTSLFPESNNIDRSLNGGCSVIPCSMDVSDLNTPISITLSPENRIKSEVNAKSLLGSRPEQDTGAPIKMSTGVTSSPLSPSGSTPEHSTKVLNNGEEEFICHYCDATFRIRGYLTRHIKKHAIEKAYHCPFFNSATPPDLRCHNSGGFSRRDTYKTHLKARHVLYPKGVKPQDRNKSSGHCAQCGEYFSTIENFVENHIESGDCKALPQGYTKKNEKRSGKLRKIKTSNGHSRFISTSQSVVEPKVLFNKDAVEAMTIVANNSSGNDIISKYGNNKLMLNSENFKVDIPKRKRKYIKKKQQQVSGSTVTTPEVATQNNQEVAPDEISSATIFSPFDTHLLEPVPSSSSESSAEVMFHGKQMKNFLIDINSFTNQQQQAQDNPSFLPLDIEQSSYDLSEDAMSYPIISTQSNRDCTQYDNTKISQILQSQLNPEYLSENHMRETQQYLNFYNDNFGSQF
Test: PBM E-score (8-mer binding enrichment) (E-score (-0.5 to 0.5)); higher = stronger / more preferred TF binding; most listed sequences are background and not binding sites
Details: protein concentration: 200 nM; construct: GST-full length
Summary of the method: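 For each ungapped eight-base word taken together with its reverse complement, the Universal PBM Analysis Suite assigned an E-score. Binding data came from GST-tagged yeast transcription factors, applied at about 100-200 nM, on universal all-10-mer Agilent arrays made double-stranded by primer extension. Fluorescent anti-GST marked bound protein, and scans were normalised with masliner.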

Sequence	PBM E-score
CGAAGGTA	-0.00193
GTAGCTGA	-0.154
ACATTTGG	-0.113
CCCCGTCG	-0.134
AGACACAT	-0.142
AAAAGAAC	0.0475
CTCGATAA	0.156
ACTCACAT	-0.103
ATTATTCC	0.0221
GTGCAAGA	0.171
ATGTGACG	-0.18
ACCGTTCA	-0.0101
ATGGGTGG	-0.155
ACGCAGAC	-0.0966
CTTTAAGA	-0.0405
GAGCGACA	-0.0788
GCTGAGCA	-0.0706
GAAAGTGC	-0.045
GTTAACCA	0.145
CACAGTAA	0.209
GCCCGCCC	-0.0566
GTGAACTA	0.00375
CTCTCGAA	-0.105
ACAAACTC	0.0499
AAAAATAC	0.151

Sequence	PBM E-score
ACCTACGG	-0.16
CGGAAGAG	-0.00742
GGATATGA	-0.0473
GAATTTCC	0.108
ATCAGGCC	-0.14
GTCATATA	0.0494
GAGCGCAC	-0.19
AGCTCGAG	-0.232
CGTATACG	0.115
AACTAGAC	0.153
AAGTCGGA	-0.0439
AATCAGAT	0.103
GAAGGAAC	-0.0401
TGCCGCCA	0.229
ACCAATCG	0.0932
GTTCCAAC	0.127
ACTCGCTG	0.0353
ACCTCAGG	-0.247
AGAATGAC	-0.0818
CTCGCCAG	-0.165
CACCCGGC	-0.0619
GTCCGGAC	-0.0989
CAGTCTTC	-0.154
AAGTGAAT	0.212
TAGTTACA	-0.013

Sequence	PBM E-score
CAGAGGCG	0.028
AAGAGTTG	-0.0322
AGTATGCA	-0.0421
GCGGACAA	0.127
CTCTACCA	-0.0433
AGTAGTGA	-0.0104
AGAGGGAT	-0.214
GGCTATCA	0.0642
AGGGAGGG	-0.237
CACTCGAA	0.0341
AGGAATTA	-0.063
CGATCAAA	-0.121
TAACCGCA	0.0745
CCTCCCCG	-0.0218
AAGAAGTC	-0.0393
AGAAGAGA	-0.0256
ATTTTTCA	0.116
ATGCTTGG	-0.142
CTACGAGA	-0.132
ATCGATCC	-0.111
CATGCGCG	-0.0347
AACTTCCC	-0.172
GCGACCGA	0.0544
CAGTTTCG	-0.00824
CTTCTGTA	0.0992

Sequence	PBM E-score
GGGTTAAA	-0.226
AATGGAGC	0.046
GGTCCGAC	-0.164
ATCATGGA	-0.201
AACGCACA	-0.0113
GCCGCGGC	0.474
CGAGCAGA	-0.21
CGAGAAAG	-0.0578
AAGTTTGC	0.0668
CGCTCTGC	-0.0351
AACTCGTA	0.00375
CATAGCGG	-0.26
ATTTCCTC	0.0188
TCGCACGA	-0.0503
GGGACTCA	-0.215
CCGAGGGA	-0.209
GGTGACAC	-0.148
AGGCGCCA	0.353
CGGGCCCC	-0.122
CAGATTCG	-0.0223
CCAGACCC	-0.314
ACCAGATG	-0.146
AAAAACTT	0.145
AATAAAAG	0.0874
CCAAGTCA	-0.138

Sequence	PBM E-score
TCAAGACA	-0.0772
AGTTTGGC	0.051
CCTGCTCC	0.0227
AATCATGA	0.199
CTCGAAAC	0.113
CAGCTCCA	-0.234
AATACAAG	0.0957
CCGCCCCC	-0.238
CAGCGGGC	-0.0556
CAAACAGG	-0.0496
CTAATTTC	0.162
GCGATAGC	-0.0161
TAGAGAAA	0.0678
CAAATACA	0.0678
CTGTGGGA	-0.223
GCTTCATA	0.0285
AAGCAAAA	0.135
CACACGGG	0.235
GATCCAAA	0.169
CCACTGAG	-0.169
TACTACTA	0.233
AGCACTGG	-0.259
ACAACCAT	0.182
AGTCCGAG	-0.0371
AGCTCACC	-0.238

Sequence	PBM E-score
CGAATCAG	-0.0712
CTCATCTA	-0.0574
ACACTCGT	-0.0508
AACATTAA	0.0927
TACCGGGA	-0.175
AGTACAGA	0.0823
AGATCACC	-0.00473
CGCGATTC	0.118
ACCGCATC	0.146
ACTAATGG	0.0182
GATAGTGC	0.00653
CAGAGCCG	0.338
CGGCGCCA	0.463
ACGCCCCG	0.0688
CCTGACAC	0.00556
GATTCAAA	0.0233
CATCCCAC	-0.186
AGTGTGTA	0.0491
CACCTTTA	-0.0604
GAGTTATC	-0.0559
ATACCTAG	-0.0659
AAGAGGAG	-0.165
GATTTACC	0.096
CTAGCTAC	-0.39
ATGGCAAT	0.066

Sequence	PBM E-score
GACCGGGA	-0.256
GTAATTGA	0.0867
AACAAGCT	-0.109
GTTTGGGA	0.0153
ACACCACT	0.0178
CCACCCGC	-0.142
AATGTCCA	-0.219
CAAATTCA	-0.00383
CCACACGA	-0.105
CGTTTGAG	0.0843
AAACGAAA	0.149
AAGCTCAG	-0.185
TAAGCTCA	-0.114
CATAACGC	0.192
CATAGCGC	0.163
GAACTTCC	-0.103
TGGTATAA	0.148
AGATATCA	0.0553
GATATACC	0.0955
AAACTTCC	-0.0326
GATGTGAA	0.112
AACGCGTT	-0.0683
